SMILES strings stand for the structures. The campaign covered roughly 45,000 compounds. About 200 (0.44%) were called active. Not shown: some 7% with an inconclusive outcome. Calls follow the shape of the dose curve; as a rule, active = well fitted activation curve with a large enough effect; inconclusive = small, poorly fitted or top-dose-only effect; inactive = no such curve, though single readings can be large or run the other way. Some of the results follow.

The nature of the test: qHTS of TDP-43 Inhibitors: NCGC Sytravon Library Screen. Also: 0% is about no effect; nearly all actives have a fitted effect of over 55% in size. Particulars: yeast TDP-43 toxicity rescue, BacTiter-Glo growth, 24 h; series mostly up to 46.1 µM; growth rescue (activation): at the top concentration. Summed up: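 TDP-43-expressing yeast, pregrown in raffinose, seeded at OD600 0.02 in galactose medium with compound for 24 hr at 30 deg C. Growth read by BacTiter-Glo luminescence, so rescue of toxicity appears as activation.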
On the technique in general: Quantitative high-throughput screening tests each substance at several concentrations.
Regarding `CS(=O)(=O)N1CCC(C(=O)Nc2cc(Cl)ccc2Cl)CC1`, the “growth rescue (activation)” value is inactive: 7.48%.

With `CC(C)(C)C(=O)Nc1ccc(S(=O)(=O)Nc2ccccn2)cc1`, the “growth rescue (activation)” value was inactive: -14.2%.

Consider `CCc1cccc(NC(=O)CN(C)S(=O)(=O)c2cnc[nH]2)c1`, for which the “growth rescue (activation)” value was inactive: -13.5%.

Regarding `Nn1c(-c2ccccc2)nc2cc(Cl)ccc2c1=O`, the “growth rescue (activation)” value was inactive: 17.9%.

Regarding `Cc1ccc(C(=O)NC(c2ccccc2)C(Cl)Cl)cc1` (centres undefined), the “growth rescue (activation)” value was inactive: 17.6%.

`CC(=O)c1ccc(NC(=O)c2cc(-c3cccs3)on2)cc1`: the “growth rescue (activation)” value was inactive: -29.3%.

Regarding `O=C(Nc1cccc(S(=O)(=O)NC2=NCCC2)c1)c1ccc(F)cc1F`, the “growth rescue (activation)” value was inactive: -0.247%.

As for `CCS(=O)(=O)Nc1cccc(C2=NN(C(=O)c3ccco3)C(c3ccco3)C2)c1` (centres undefined), the “growth rescue (activation)” value was inactive: -5.61%.

Turning to `CCn1c(=O)c(C(=O)NNC(=O)c2ccc(Cl)cc2Cl)c(O)c2ccccc21`, the “growth rescue (activation)” value is inactive: -30.7%.

Turning to `O=C(CSc1n[nH]c(-c2ccncc2)n1)Nc1ccc(Cl)cc1`, the “growth rescue (activation)” value is inactive: -20.4%.

Turning to `C/C(=N/NC(=O)c1cnccn1)c1cccs1`, the “growth rescue (activation)” value is inactive: -17.1%.

Consider `CCOC(=O)N1CCN(C(=O)c2ccccc2N(Cc2ccccc2)S(=O)(=O)c2ccccc2)CC1`, for which the “growth rescue (activation)” value is inactive: 7.22%.

Take `CCOc1ccc(S(=O)(=O)N2CCCC(C(=O)N3CCOCC3)C2)cc1` (centres undefined): the “growth rescue (activation)” value is inactive: 6.01%.

Consider `O=C(CCNC(=O)c1ccccc1)Nc1ccc(S(=O)(=O)Nc2ncccn2)cc1`, for which the “growth rescue (activation)” value was inactive: 14.3%.

As for `O=C(NCC1CCCO1)c1cccc2ccccc12` (centres undefined), the “growth rescue (activation)” value was inactive: 2.86%.

`Cc1cc(S(=O)(=O)NCc2cccs2)ccc1-n1cnnn1`: the “growth rescue (activation)” value is inactive: 26%.

As to `COc1ccc(/C=N/NC(=O)CCc2n[nH]c(=O)[nH]c2=O)cc1O`, the “growth rescue (activation)” value is inactive: 8.31%.

Consider `COc1ccc(CN(C)C(=O)c2ccc(COc3ccccc3)cc2)c(OC)c1`, for which the “growth rescue (activation)” value is inactive: 29.3%.

Take `CC(C)CCNC(=O)C1CCN(Cc2cccc(OCc3ccccc3)c2)CC1`: the “growth rescue (activation)” value is inactive: -23.6%.

On to `CCc1ccc2[nH]c(=O)c(CN(CCN(CC)CC)C(=O)NC3CCCCC3)cc2c1`, for which the “growth rescue (activation)” value is inactive: -17.3%.

With `Cc1ccc(C2=NN(C(=O)CSc3nc(N)cc(N)n3)C(c3ccco3)C2)cc1` (centres undefined), the “growth rescue (activation)” value was inactive: 6.64%.

`COc1ccc(-c2cc(C(=O)N3CCN(c4ccccc4OC)CC3)no2)cc1`: the “growth rescue (activation)” value was inactive: -8.43%.

As for `O=C(Nc1cc(Cl)ccc1N1CCOCC1)c1ccc(N2CCCCC2)c([N+](=O)[O-])c1`, the “growth rescue (activation)” value is inactive: -23.6%.

As for `COc1ccccc1NC(=O)c1cc(Cl)nnc1Cl`, the “growth rescue (activation)” value was inactive: 0.408%.

Take `CC(NC(=O)COC(=O)/C=C/c1ccco1)c1ccccc1` (centres undefined): the “growth rescue (activation)” value is inactive: 20.8%.

On to `O=C(/C=C/c1ccc(F)cc1)NC(=S)N1CCN(c2ccccn2)CC1`, for which the “growth rescue (activation)” value is inactive: 22.1%.

On to `Cc1cc2nnc(SCC(=O)N(C)C3CCS(=O)(=O)C3)n2c2ccccc12` (centres undefined), for which the “growth rescue (activation)” value is inactive: 8.17%.

Take `O=C(Nc1ccc(F)cc1)Nc1ccccc1F`: the “growth rescue (activation)” value is inactive: 11.9%.

Take `COc1ccc2c(c1)nc(SCC(C)O)n2C` (centres undefined): the “growth rescue (activation)” value was inactive: 2.21%.

Consider `O=C(CCN1C(=O)/C(=C/c2ccccc2)SC1=S)NNC(=O)c1ccncc1`, for which the “growth rescue (activation)” value is inactive: -17.1%.

In the case of `CCc1nc2ccc(C(=O)Nc3cc(-c4ccccc4)ccc3OC)cn2c1N(CC)CC(=O)N(C)C`, the “growth rescue (activation)” value is inactive: -3.03%.

As to `CCOC(=O)C1CCN(C(=O)c2ccccc2NS(=O)(=O)c2ccc(F)cc2)CC1`, the “growth rescue (activation)” value is inactive: 7.85%.

On to `CC(C(=O)OCC(=O)c1ccccc1)N1C(=O)C2C3CCC(C3)C2C1=O` (centres undefined), for which the “growth rescue (activation)” value is inactive: 7.15%.

On to `O=C(N/N=C1\CCc2ccccc21)c1ccccc1Cl`, for which the “growth rescue (activation)” value was inactive: 7.05%.

In the case of `CCc1ccc(-c2nc(CCl)cs2)cc1`, the “growth rescue (activation)” value was inactive: 32.8%.

As for `Cc1cccnc1NC(N)=S`, the “growth rescue (activation)” value was inactive: 8.89%.

Turning to `CCN(CC)c1ccc(C(=O)N/N=C(\C)c2ccc(O)cc2)cc1`, the “growth rescue (activation)” value is inactive: 25.1%.

As for `COCCNC(=O)CCN1N=C(c2ccccc2)CCC1=O`, the “growth rescue (activation)” value is inactive: -1.56%.

As to `CCc1ccc(NC(=O)CN2CCN(c3ccc(OC)cc3)CC2)cc1`, the “growth rescue (activation)” value is inactive: 0.286%.

As for `O=C1CCCc2ccccc2N1Cc1ccccc1`, the “growth rescue (activation)” value was inactive: 16.4%.

As to `O=S(=O)(Nc1ccc2cn[nH]c2c1)c1cc(Br)ccc1Br`, the “growth rescue (activation)” value was inactive: -1.09%.

In the case of `O=C1c2ccccc2C(=O)c2cc(S(=O)(=O)Nc3ccccc3)ccc21`, the “growth rescue (activation)” value is inactive: -12.5%.

On to `CCOc1ccc(C(=O)Cn2cnc3ccccc3c2=O)cc1`, for which the “growth rescue (activation)” value was inactive: -27.4%.

For `CCCCCCNC(=O)c1c(O)c2cccc3c2n(c1=O)CCC3`, the “growth rescue (activation)” value was inactive: -27.7%.

`COc1ccccc1CN1CCNC(=O)C1CC(=O)NCCOc1cccnc1` (centres undefined): the “growth rescue (activation)” value was inactive: -2.26%.

Take `CNC(=O)NC(=O)C(C)OC(=O)c1oc2ccccc2c1CSc1ccc(Cl)cc1` (centres undefined): the “growth rescue (activation)” value is inactive: 7.55%.

With `CC(NC(=O)COC(=O)c1ccc([N+](=O)[O-])o1)c1ccccc1` (centres undefined), the “growth rescue (activation)” value was inactive: 29.7%.

As for `COc1ccc(-n2nc(C(=O)NCC(=O)N3CCN(c4ccccc4OC)CC3)c3ccccc3c2=O)c(OC)c1`, the “growth rescue (activation)” value was inactive: 5.85%.

As for `COc1ccc(CCN(Cc2ccc(C(C)C)cc2)S(=O)(=O)c2ccc(S(=O)(=O)N(C)C)cc2)cc1OC`, the “growth rescue (activation)” value was inactive: 12.3%.

For the compound `COc1ccc2c(c1)c(CC(=O)Nc1ccc(C(C)=O)cc1)c(C)n2C(=O)c1ccc(Cl)cc1`, the “growth rescue (activation)” value is inactive: 24.7%.

As to `COc1ccc(CN(C)CC(=O)Nc2cccc3ccccc23)cc1F`, the “growth rescue (activation)” value is inactive: 4.15%.

Regarding `CCN1CC(CN(C)Cc2nc(-c3cccs3)no2)CC1=O` (centres undefined), the “growth rescue (activation)” value was inactive: 5.52%.

In the case of `Cc1ccc(CNc2nc3c([nH]2)c(=O)n(C)c(=O)n3C)cc1`, the “growth rescue (activation)” value was inactive: -10.8%.

As to `CCOC(=O)C1=C(C)NC(=O)NC1c1cc2c(cc1Br)OCO2` (centres undefined), the “growth rescue (activation)” value is inactive: -24.1%.
